Laboratory results from PubChem BioAssay AID1645887 (National Center for Advancing Translational Sciences (NCATS), 2021).
Where “and” joins values, the source holds several entries; their conditions need not be identical. Identical values can stand only once. Screen size: about 16,000 compounds; about 40 (0.2%) were called active. Roughly 1% stayed inconclusive and do not appear here. The call rests on the fitted dose curve; in most records, active means well fitted activation curve with a large enough effect; inconclusive means small, poorly fitted or top-dose-only effect, or another doubt; inactive means no such curve, though single readings can be large or run the other way. The list shows a part of the results.

What follows are compounds tested against Rap guanine nucleotide exchange factor 4 (Homo sapiens) (UniProt Q8WZA2) (assay: Validation qHTS for agonist of cAMP-regulated guanine nucleotide exchange factor 4 (EPAC2)). Conditions: EPAC2 Rap1B BODIPY-GDP exchange, fluorescence; activation: stronger effect = higher value.
Summary of the method: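 Signal normalized against 6.5 mM cAMP as agonist control. Mix of EPAC2 (100 nM), RAP1B-BODIPY-GDP (250 nM) and GDP (50 uM) was read kinetically at 480/540 nm, every 5 min over 30 min, after 5 min room-temperature incubation with compound.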
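Further: exchange makes BODIPY-GDP fluorescence drop when released from Rap1B; series mostly up to about 150 µM.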
On the % scale 0 is the no-effect control and ±100 the full control effect.

UniProt Q8WZA2, sequence (Q8WZA2 whole entry, looked up): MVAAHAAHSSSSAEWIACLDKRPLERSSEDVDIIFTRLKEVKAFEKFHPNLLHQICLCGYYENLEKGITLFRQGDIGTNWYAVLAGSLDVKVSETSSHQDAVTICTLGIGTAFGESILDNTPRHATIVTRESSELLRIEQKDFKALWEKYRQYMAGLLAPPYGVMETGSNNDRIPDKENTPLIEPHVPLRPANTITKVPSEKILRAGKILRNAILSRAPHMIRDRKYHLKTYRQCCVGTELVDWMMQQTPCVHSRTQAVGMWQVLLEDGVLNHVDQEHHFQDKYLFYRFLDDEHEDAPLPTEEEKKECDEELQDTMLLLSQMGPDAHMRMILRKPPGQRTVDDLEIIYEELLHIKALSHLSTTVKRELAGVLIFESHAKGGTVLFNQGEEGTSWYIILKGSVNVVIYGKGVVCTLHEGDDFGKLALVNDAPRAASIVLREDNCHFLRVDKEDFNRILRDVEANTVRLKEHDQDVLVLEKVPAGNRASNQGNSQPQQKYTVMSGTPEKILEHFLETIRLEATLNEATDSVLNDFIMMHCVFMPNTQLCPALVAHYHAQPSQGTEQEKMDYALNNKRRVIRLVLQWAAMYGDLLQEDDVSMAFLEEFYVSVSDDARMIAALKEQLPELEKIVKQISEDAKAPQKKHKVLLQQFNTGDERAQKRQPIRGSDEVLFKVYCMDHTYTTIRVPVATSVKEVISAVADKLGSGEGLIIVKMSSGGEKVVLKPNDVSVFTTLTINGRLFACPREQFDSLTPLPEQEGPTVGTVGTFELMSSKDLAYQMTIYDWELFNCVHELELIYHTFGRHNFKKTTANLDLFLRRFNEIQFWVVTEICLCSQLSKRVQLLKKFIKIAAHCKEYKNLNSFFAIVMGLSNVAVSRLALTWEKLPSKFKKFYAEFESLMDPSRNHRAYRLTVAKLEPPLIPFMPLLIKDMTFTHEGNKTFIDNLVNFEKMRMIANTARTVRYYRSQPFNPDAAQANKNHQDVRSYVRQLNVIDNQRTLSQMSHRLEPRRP

activation, inactive:
O=S1(=O)CCO[C@H]2Cc3ccccc3[C@H]2N1Cc1cccc(Cl)c1 -14.9%
Cc1c(C(=O)N(C)Cc2nccs2)sc2ncnc(NCC3CCCO3)c12 (centres undefined) -7.19%
Cc1cc(-c2ccnc(-n3ncc(C(=O)NC(C)(C)CO)c3C3CC3)n2)c(C)s1 -4.84%
Cn1c(=O)c(-c2ccc(F)cc2)nc2cnc(OCc3ccccc3)nc21 -8.53%
CCNc1ncc2nc(-c3ccccc3)c(=O)n(C3CC3)c2n1 -11.7%
O=C(O)C#CC(=O)O -17.7%
CN(C)c1ncc2nc(-c3ccc(Cl)cc3)c(=O)n(Cc3ccc(F)cc3)c2n1 2.81%
COC(=O)c1ccccc1C(=O)NCC1Cc2cc(-c3nc(C)cnc3C)ccc2O1 (centres undefined) -20.8%
COc1ccc(CNc2ccnc(-c3ccc(N(C)C)cc3)n2)c(OC)c1 2.01%
COc1cccc(CNc2ncnc3sc(C(=O)N4CC5CCC4C5)c(C)c23)c1OC (centres undefined) -0.672%
C=C1[C@@H](O)[C@H](CC(C)C)N(Cc2ccccc2Br)S1(=O)=O -22.2%
Cc1cc[n+](CC(=O)c2ccccc2)c2ccccc12 -6.37%
N=c1c[n+](N2CCOCC2)[n-]o1 -22.3%
O=C(c1cc(C(F)(F)F)cc(C(F)(F)F)c1)N1CCC2(CCN(Cc3ccccc3)CC2)CC1 -13.5%
CCN(c1ccccc1)c1cc(NC)[n+](C)c(C)n1 -3.88%
CN1CCN(CCCN2c3ccccc3Sc3ccc(Cl)cc32)CC1 -7.1% and -31.1% and -8.09%
Clc1ccc2nc(-c3ccccc3)[nH]c2c1 -8.34%
CCCCNC(=O)[C@@H]1CC=C[C@@H]2CCN(Cc3ccc(Cl)c(Cl)c3)C(=O)[C@@H]21 -4.78%
O=[N+]([O-])c1ccc2c(c1)C=CC2 -0.0666%
O=C1c2ccccc2C(=O)c2c1ccc(O)c2O -30% and -2.78%
CC(=O)OC1CC2C(C)(C)C(O)CC[C@@]2(C)C2CC[C@@]3(C)C(c4ccoc4)OC(=O)C4O[C@@]43[C@]12C (some centres undefined) 2.19%
CCOC(=O)C[C@H]1c2ccc(C(F)(F)F)cc2S(=O)(=O)N1c1ccccc1 -44.2%
COc1cccc(N2[C@@H](CC(=O)O)c3ccccc3S2(=O)=O)c1 -2.1%
Nc1nc(=S)c2[nH]cnc2[nH]1 -2.84% and 7.55%
